Experimental data published in PubChem BioAssay AID686979 (National Center for Advancing Translational Sciences (NCATS), 2013).
The whole screen tested about 420,000 compounds, of which about 50,000 (12%) were called active. Inconclusive results, whose numbers are uncertain, are shown with a selection of clear calls. Calls follow the shape of the dose curve; as a rule, active = well fitted inhibition curve with a large enough effect; inconclusive = small, poorly fitted or top-dose-only effect; inactive = flat fitted curve, though single readings scatter. No potency is given beside an inconclusive call; the fits are too rough.

Assay: qHTS for Inhibitors of human tyrosyl-DNA phosphodiesterase 1 (TDP1): qHTS in cells in presence of CPT; also: nearly all actives have a fitted effect of over 55% in size
Details: chicken DT40 Tdp1-/-;hTDP1 cells + 20 nM CPT, ATP luminescence, 48 h; activity change, negative = growth inhibition: at 46.2 µM (top of the series)
How it was run: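 Chicken DT40 Tdp1-/- cells stably complemented with human TDP1 were seeded at 400 cells/well in medium containing 20 nM camptothecin, exposed to pin-transferred compounds, and grown at 37 °C for at least 48 hr. Viability was read as ATP luminescence.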
% is scaled to controls: 0 for no effect and ±100 for the full control effect; potency is read from the fitted curve at half-maximal effect; tags tell the direction and shape of the fitted curve.

SMILES | activity change, negative = growth inhibition | Potency
CCOc1cc(/C=C2/N=C(c3ccc4c(c3)OCO4)OC2=O)ccc1OC(C)=O | inconclusive: -33.1% [inhibitor] | 
Cc1nn(CC(=O)Nc2ccc3c(c2)nc2n3CCN(C3CCCCC3)C2)c(=O)c2ccccc12 |  | inconclusive [inhibitor, single point]
COCCN(C(=O)CSc1nnc(Nc2ccccc2F)s1)c1c(N)n(Cc2ccccc2)c(=O)[nH]c1=O | inactive: -7.14% | 
COc1ccc(-n2ccnc2SCC(=O)NCc2ccc3c(c2)OCO3)cc1 |  | inconclusive [inhibitor, single point]
CCOC(=O)Cc1[nH]nc2c1C(c1ccoc1)C(C#N)=C(N)O2 (stereo unspecified) | inactive: -6.14% | 
NC1=NCC2c3ccccc3Cc3ccccc3N12 (stereo unspecified) |  | inconclusive [inhibitor, single point]
O=C(c1ccccc1)c1c[nH]c(C(=O)NCCCn2ccnc2)c1 | inactive: -26.6% | 
COc1ccc(C(=O)C(=O)N2CCN(C(=O)OCc3ccccc3)CC2)cc1 |  | inconclusive [inhibitor, single point]
COc1cc(NC(=O)c2cnc(NCc3ccccc3)nc2C)cc(OC)c1OC |  | inconclusive [inhibitor, single point]
CC(Oc1ccccc1)C(=O)Nc1cccc(-c2cn3cccnc3n2)c1 (stereo unspecified) |  | inconclusive [inhibitor, single point]
O=C(Cc1ccccc1F)N1CCN(S(=O)(=O)c2ccc(Cl)cc2)CC1 | inconclusive: -33.1% [inhibitor] | 
CCNC(=O)c1ccc2c(c1)sc1nc(-c3cccc(OC)c3)cn12 |  | active: 6.51 µM
Cc1ccc(C)c(S(=O)(=O)NCc2ccc(C(=O)NCc3ccccn3)cc2)c1 | inactive: -7.92% | 
COc1ccc(OC)c(C(O)c2ncc(-c3cccc(C(F)(F)F)c3)[nH]2)c1 (stereo unspecified) |  | inconclusive [inhibitor, single point]
Nc1ccc(Cc2ccc(C=O)cc2)cc1 | inactive: -6.09% | 
Cc1ccc(NC(=O)N2CCC3(CC2)Oc2ccccc2C(=O)N3Cc2ccc(F)cc2)cc1 |  | inconclusive [inhibitor, single point]
O=C(O)CCC(=O)O |  | inconclusive [inhibitor, single point]
NNC(=S)NCc1ccc2c(c1)OCO2 |  | inconclusive [inhibitor, single point]
COc1ccc(/C=C/c2nc(C#N)c(NCc3ccc(C)cc3)o2)cc1OC |  | inconclusive [inhibitor, single point]
CCOC(=O)c1c(C)[nH]c(C(=O)N(C)CC(=O)Nc2ccc(OC)cc2)c1C |  | inconclusive [inhibitor, single point]
COc1ccc(C=C2SC(=S)NC2=O)cc1 |  | inconclusive [inhibitor, single point]
Cc1c2cnn(CC(=O)NC(C)C)c(=O)c2c(C)n1Cc1cccc(Cl)c1 | inactive: -27.6% | 
COc1ccc(/C=C/C(=O)OCC(=O)N(C)c2c(N)n(Cc3ccccc3)c(=O)[nH]c2=O)cc1OC |  | inconclusive [inhibitor, single point]

SMILES | activity change, negative = growth inhibition | Potency
O=C(Cn1cc(SCc2cccc(Cl)c2)c2ccccc21)N1CCCCC1 |  | active: 18.4 µM
COc1cccc(C(=O)O/N=C(\N)c2ccccn2)c1OC |  | inconclusive [inhibitor, single point]
OCCN1CCN(CC/C=C2/c3ccccc3CSc3ccccc32)CC1 |  | inconclusive [inhibitor, single point]
CN(C)S(=O)(=O)c1cccc(NC(=O)COC(=O)c2cc(-c3cccc(Br)c3)nc3ccccc23)c1 |  | inconclusive [inhibitor, single point]
COC(=O)[C@]1(C)N[C@H](CN(C)C(=O)c2ccc(F)cc2)[C@@H]2C(=O)N(Cc3ccccc3)C(=O)[C@@H]21 | inactive: -28.3% | 
CCOc1ccc(NC(=O)CC2C(=O)N(c3ccccc3)C(=O)N2CCc2sccc2C)cc1 (stereo unspecified) |  | active: 14.6 µM
CN(C)Cc1c(C(=O)N/N=C/C=C/c2ccccc2)nnn1-c1nonc1N | inactive: 0.207% | 
Cc1cc(-c2nn(C)c(=O)c3ccccc23)ccc1CNC(=O)NC1CCCCC1 |  | inconclusive [inhibitor, single point]
O=C1Nc2ccc(S(=O)(=O)NCc3ccco3)c3cccc1c23 |  | inconclusive [inhibitor, single point]
CCc1ccc(NC(=O)CSc2nnc(Cn3c(=O)sc4ccccc43)n2C)cc1 | inconclusive: -16% [inhibitor] | 
Cc1ccc(CN2CCSc3ccc(C(=O)NCc4ccccn4)cc32)cc1 | inconclusive: -31% [inhibitor] | 
CCOC(=O)Cc1csc(SCc2cc(=O)oc3cc(O)ccc23)n1 |  | inconclusive [inhibitor, single point]
COc1ccc(CNC(=O)N2CCc3nc(Nc4cc(OC)c(OC)c(OC)c4)ncc3C2)cc1 |  | inconclusive [inhibitor, single point]
CC1CCc2c(sc(NS(=O)(=O)c3ccccc3)c2C(=O)OC(C)C)C1 (stereo unspecified) | inactive: -4.05% | 
Cc1cc(C)nc(SCCn2c(N(C)Cc3ccccc3)nc3c2c(=O)n(C)c(=O)n3C)n1 |  | inconclusive [inhibitor, single point]
O=C(N/N=C/c1cccc(O)c1)c1cc(-c2ccccc2)nc2ccccc12 |  | active: 2.31 µM
Fc1ccc(-c2cc(-c3nc(-c4ccc(Cl)cc4)no3)[nH]n2)cc1 |  | inconclusive [inhibitor, single point]
CCOc1ncccc1C(=O)N1CCN(c2cccc(C)c2C)CC1 |  | active: 0.517 µM
O=C(/C=C/c1ccccc1[N+](=O)[O-])OCC(=O)N1CCN(c2ccccc2)CC1 |  | active: 20.6 µM
COc1ccc(C2=NCCn3nc4ccccc4c32)cc1 | inactive: -16% | 
COc1ccc(S(=O)(=O)c2c(C(=O)c3ccc(C)c(C)c3)cnc3ccc(C)cc23)cc1 |  | active: 7.31 µM
O=C(Nc1ccccn1)c1ccc(Cl)s1 | inactive: 5.32% | 
CCOc1ccc(S(=O)(=O)N2CCN(c3ccc(C)cc3C)CC2)cc1 |  | inconclusive [inhibitor, single point]
